# The supplement of paper PMC4604168 (melanoma cell lines)
# Some of the results follow. Repeats are few or missing, and single values can be far off.
# Tests used:
# Assay in all cases: cell count relative to DMSO control; melanoma cells; higher = more viable cells
# Conditions in all cases: library dose: standard library concentration; 72 h
# SkMel28 = test system: SkMel28
# SkMel2 = test system: SkMel2
# SkMel30 = test system: SkMel30
# SkMel5 = test system: SkMel5
# UACC257 = test system: UACC257
# UACC62 = test system: UACC62
# WM115 = test system: WM115
# WM1716 = test system: WM1716
# WM1745 = test system: WM1745
# WM3526 = test system: WM3526
# 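Note: cells treated in 1,536-well plates, then fixed and DAPI-stained, with nuclei counted from automated high-throughput microscope images.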
SMILES,cell count (SkMel28) [%],cell count (SkMel2) [%],cell count (SkMel30) [%],cell count (SkMel5) [%],cell count (UACC257) [%],cell count (UACC62) [%],cell count (WM115) [%],cell count (WM1716) [%],cell count (WM1745) [%],cell count (WM3526) [%]
"O=C(/C=C/c1cccnc1)NCCCCC1CCN(C(=O)c2ccccc2)CC1 + CNC(=O)c1cc(Oc2ccc(NC(=O)Nc3ccc(Cl)c(C(F)(F)F)c3)cc2)ccn1 [sorafenib] (first compound 0.05 µM, partner dose 2 µM)",111,4.27,103,84.2,81.7,70.6,88.6,101,91.5,85.9
"Cc1ccc(Nc2nccc(N(C)c3ccc4c(C)n(C)nc4c3)n2)cc1S(N)(=O)=O [Pazopanib] + CCCS(=O)(=O)Nc1ccc(F)c(C(=O)c2c[nH]c3ncc(Cl)cc23)c1F [PLX4720] (first compound 2 µM, partner dose 0.4 µM)",60.4,140,79.7,94,115,63.7,81.5,73,61.4,73.2
"CC1(C)CCC(c2ccc(Cl)cc2)=C(CN2CCN(c3ccc(C(=O)NS(=O)(=O)c4ccc(N[C@H](CCN5CCOCC5)CSc5ccccc5)c(S(=O)(=O)C(F)(F)F)c4)cc3)CC2)C1 + O=C(O)c1ccc(-c2c[nH]c3ncc(-c4ccccc4)cc23)cc1C1CCCC1 [GSK650394] (first compound 2 µM, partner dose 0.8 µM)",45.2,58,53.2,62.8,40.1,68.8,65.4,50.3,5.12,71.4
"CC1(C)CCC(c2ccc(Cl)cc2)=C(CN2CCN(c3ccc(C(=O)NS(=O)(=O)c4ccc(N[C@H](CCN5CCOCC5)CSc5ccccc5)c(S(=O)(=O)C(F)(F)F)c4)cc3)CC2)C1 + CO[C@H]1C[C@@H]2CC[C@@H](C)[C@@](O)(O2)C(=O)C(=O)N2CCCC[C@H]2C(=O)O[C@H]([C@H](C)C[C@@H]2CC[C@@H](OCCO)[C@H](OC)C2)CC(=O)[C@H](C)/C=C(\C)[C@@H](O)[C@@H](OC)C(=O)[C@H](C)C[C@H](C)/C=C/C=C/C=C/1C [everolimus] (first compound 2 µM, partner dose 0.1 µM)",34.6,49.8,57.4,45.2,44.1,59.5,36.3,47.2,10.6,61.9
"Cc1ccc(Nc2nccc(N(C)c3ccc4c(C)n(C)nc4c3)n2)cc1S(N)(=O)=O [Pazopanib] + C=C(c1ccc(C(=O)O)cc1)c1cc2c(cc1C)C(C)(C)CCC2(C)C [Bexarotene] (first compound 2 µM, partner dose 10 µM)",74.4,84,98.9,79.8,78.4,80.4,95.3,99.3,84.7,75.4
"O=C(/C=C/c1cccnc1)NCCCCC1CCN(C(=O)c2ccccc2)CC1 + Nc1ncn([C@H]2C[C@H](O)[C@@H](CO)O2)c(=O)n1 [decitabine] (first compound 0.05 µM, partner dose 0.5 µM)",124,5.02,108,79.2,101,71.3,74.7,70.3,75.2,105
"CC1(C)CCC(c2ccc(Cl)cc2)=C(CN2CCN(c3ccc(C(=O)NS(=O)(=O)c4ccc(N[C@H](CCN5CCOCC5)CSc5ccccc5)c(S(=O)(=O)C(F)(F)F)c4)cc3)CC2)C1 + COCC[n+]1c2c(n(Cc3cnccn3)c1C)C(=O)c1ccccc1C2=O [YM155] (first compound 2 µM, partner dose 0.002 µM)",20.3,19.6,49.8,17.8,25.9,39.7,56.8,21.8,4.26,24.4
"Cc1ccc(Nc2nccc(N(C)c3ccc4c(C)n(C)nc4c3)n2)cc1S(N)(=O)=O [Pazopanib] + C[C@@H](Oc1cc(-c2cnn(C3CCNCC3)c2)cnc1N)c1c(Cl)ccc(F)c1Cl [Crizotinib] (first compound 2 µM, partner dose 1 µM)",31.3,81.4,92.6,58.1,89.6,69.8,50.7,82,62.7,79.4
"Cc1ccc(Nc2nccc(N(C)c3ccc4c(C)n(C)nc4c3)n2)cc1S(N)(=O)=O [Pazopanib] + COCC[n+]1c2c(n(Cc3cnccn3)c1C)C(=O)c1ccccc1C2=O [YM155] (first compound 2 µM, partner dose 0.002 µM)",27.6,52.1,70.4,20,23.4,51.4,67.2,57.4,101,37.3
"O=C(/C=C/c1cccnc1)NCCCCC1CCN(C(=O)c2ccccc2)CC1 + COc1cc2c(Oc3ccc4[nH]c(C)cc4c3F)ncnc2cc1OCCCN1CCCC1 [cediranib] (first compound 0.05 µM, partner dose 2 µM)",98.1,28.2,104,106,95.1,106,95.6,83.6,82,92.2
"Cc1ccc(Nc2nccc(N(C)c3ccc4c(C)n(C)nc4c3)n2)cc1S(N)(=O)=O [Pazopanib] + Cn1c(Nc2ccc(C(F)(F)F)cc2)nc2cc(Oc3ccnc(-c4ncc(C(F)(F)F)[nH]4)c3)ccc21 [CHIR265] (first compound 2 µM, partner dose 0.4 µM)",28.3,62.3,63.5,42.1,88,36.4,40.6,63,54.1,52.7
"CC1(C)CCC(c2ccc(Cl)cc2)=C(CN2CCN(c3ccc(C(=O)NS(=O)(=O)c4ccc(N[C@H](CCN5CCOCC5)CSc5ccccc5)c(S(=O)(=O)C(F)(F)F)c4)cc3)CC2)C1 + CC(C)(C)c1cnc(CSc2cnc(NC(=O)C3CCNCC3)s2)o1 [SNS-032] (first compound 2 µM, partner dose 0.05 µM)",63.9,47.1,67.5,61.1,45,59.9,69.9,51.5,5.1,84.8
"Cc1ccc(Nc2nccc(N(C)c3ccc4c(C)n(C)nc4c3)n2)cc1S(N)(=O)=O [Pazopanib] + Cc1cc(N2CCOCC2)cc2[nH]c(-c3c(NC[C@@H](O)c4cccc(Cl)c4)cc[nH]c3=O)nc12 [BMS536924] (first compound 2 µM, partner dose 1 µM)",63,83.3,68.4,65.6,87.5,88.2,96.8,90.4,56.1,68.7
"CC1(C)CCC(c2ccc(Cl)cc2)=C(CN2CCN(c3ccc(C(=O)NS(=O)(=O)c4ccc(N[C@H](CCN5CCOCC5)CSc5ccccc5)c(S(=O)(=O)C(F)(F)F)c4)cc3)CC2)C1 + C[C@@H]1CCN(C(=O)CC#N)C[C@@H]1N(C)c1ncnc2[nH]ccc12 [CP690550] (first compound 2 µM, partner dose 5 µM)",96,95.7,69.3,103,35.6,97.2,58.5,70.8,8.37,88.1
"O=C(/C=C/c1cccnc1)NCCCCC1CCN(C(=O)c2ccccc2)CC1 + C=C(c1ccc(C(=O)O)cc1)c1cc2c(cc1C)C(C)(C)CCC2(C)C [Bexarotene] (first compound 0.05 µM, partner dose 10 µM)",99.9,12.8,99.4,103,82.8,66.4,112,84.7,85.5,104
"CC1(C)CCC(c2ccc(Cl)cc2)=C(CN2CCN(c3ccc(C(=O)NS(=O)(=O)c4ccc(N[C@H](CCN5CCOCC5)CSc5ccccc5)c(S(=O)(=O)C(F)(F)F)c4)cc3)CC2)C1 + Cn1nnc2c(C(N)=O)ncn2c1=O [temozolomide] (first compound 2 µM, partner dose 10 µM)",32.4,79.6,56.7,81.8,36.4,59.9,58.3,31.6,3.53,95.2
"O=C(/C=C/c1cccnc1)NCCCCC1CCN(C(=O)c2ccccc2)CC1 + CCCCCCCCc1ccc(CCC(N)(CO)CO)cc1 [fingolimod] (first compound 0.05 µM, partner dose 10 µM)",1.49,0.224,8.17,35.1,61.3,9.53,11.9,18,3.2,17.9
"Cc1ccc(Nc2nccc(N(C)c3ccc4c(C)n(C)nc4c3)n2)cc1S(N)(=O)=O [Pazopanib] + COc1cc2c(Oc3ccc4[nH]c(C)cc4c3F)ncnc2cc1OCCCN1CCCC1 [cediranib] (first compound 2 µM, partner dose 2 µM)",107,87.1,83.9,80.8,103,78.5,86.3,96,109,86
"O=C(/C=C/c1cccnc1)NCCCCC1CCN(C(=O)c2ccccc2)CC1 + C[C@@H]1CCN(C(=O)CC#N)C[C@@H]1N(C)c1ncnc2[nH]ccc12 [CP690550] (first compound 0.05 µM, partner dose 5 µM)",58.4,21.4,92,121,107,78,60.8,69.2,71.3,91.1
